# Article PMC5892938
# The list shows a part of the results. At the low end of the ranking, values are background and their order means little.
# Molecular target: GST-SBP-SLBP (stem-loop binding protein) (UniProt Q14493)
# Assay: targeted RNA Bind-n-Seq;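 also: DESeq read counts versus GST-SBP nonspecific binding control pulldown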
# Details: RBNS binding buffer: 25 mM Tris pH 7.5, 150 mM KCl, 3 mM MgCl2, 0.1% Tween, 0.5 mg/mL BSA, 1 mM DTT; 27 nM protein, 750 pM RNA pool; temperature not stated; high values mean tight binding
row,Sequence,binding signal (log2 fold change)
1,GGUCACGUCUCAAUCAACUCUUUCCCCAGGGAAAACCCUGGUUAAUUCAACAGCUCGCAGUCAAG,-0.0188
2,GGUCACGUCUCAAUCAACUCUUCCUCAGGAGUUUACUCCUGCAUUUUCAACAGCUCGCAGUCAAG,-0.00484
3,GGUCACGUCUCAAUCAACUCAGUCCCCAGGGAAAUCCCUGGCUAAUUCAACAGCUCGCAGUCAAG,-0.0492
4,GGUCACGUCUCAAUCAACUCUUUCCCCAGGGAAAGCCCUGGCAAUUUCAACAGCUCGCAGUCAAG,0.128
5,GGUCACGUCUCAAUCAACUCUUCGCCAGGAGUUUUCUCCUGUAAUUUCAACAGCUCGCAGUCAAG,0.154
6,GGUCACGUCUCAAUCAACUCUACUCCCAGGGAAAGCCCUGGUUAAUUCAACAGCUCGCAGUCAAG,-0.228
7,GGUCACGUCUCAAUCAACUCUUUCCCAGGAGUUUCCUCCUGCAUUCUCAACAGCUCGCAGUCAAG,0.248
8,GGUCACGUCUCAAUCAACUCUUCCUCCAGGGAAAUCCCUGGCUAUCUCAACAGCUCGCAGUCAAG,-0.21
9,GGUCACGUCUCAAUCAACUCAUCGCCAGGAGUUUCCUCCUGUAAACUCAACAGCUCGCAGUCAAG,0.13
10,GGUCACGUCUCAAUCAACUCAGUUCCCAGGGAAAUCCCUGGCUUAUUCAACAGCUCGCAGUCAAG,-0.102
11,GGUCACGUCUCAAUCAACUCAUUUCCCAGGGAAACCCCUGGUUUUUUCAACAGCUCGCAGUCAAG,-0.0766
12,GGUCACGUCUCAAUCAACUCUUCUUCAGGAGUUUCCUCCUGCUAACUCAACAGCUCGCAGUCAAG,0.14
13,GGUCACGUCUCAAUCAACUCUUUUUCAGGAGUUUUCUCCUGUUAAUUCAACAGCUCGCAGUCAAG,0.0606
14,GGUCACGUCUCAAUCAACUCUUUCCCCAGGGAAAUCCCUGGCAUACUCAACAGCUCGCAGUCAAG,0.0536
15,GGUCACGUCUCAAUCAACUCUUCUCCCAGGGAAAACCCUGGUUUAUUCAACAGCUCGCAGUCAAG,-0.146
16,GGUCACGUCUCAAUCAACUCAUACGAGGGGGGGAAAACCCCUUUACCCUCUACAUCAACAGCUCGCAGUCAAG,-0.065
17,GGUCACGUCUCAAUCAACUCUUCAGAGGGGGGGAAAACCCCUUUACCCUCACAUUCAACAGCUCGCAGUCAAG,0.118
18,GGUCACGUCUCAAUCAACUCUUCGGAGGGGGGGAAAACCCCUUUACCCUCAACAUCAACAGCUCGCAGUCAAG,-0.515
19,GGUCACGUCUCAAUCAACUCAACAGAGGGGGGGAAAACCCCUUUACCCUCGAAUUCAACAGCUCGCAGUCAAG,-0.27
20,GGUCACGUCUCAAUCAACUCUAUCCCAGGAGUUUCCUCCUGUAAUCUCAACAGCUCGCAGUCAAG,0.0738
21,GGUCACGUCUCAAUCAACUCUAUCCCAGGAGUUUCCUCCUGCAUAUUCAACAGCUCGCAGUCAAG,0.157
22,GGUCACGUCUCAAUCAACUCUACUUCCAGGGAAAGCCCUGGCAAUCUCAACAGCUCGCAGUCAAG,-0.0196
23,GGUCACGUCUCAAUCAACUCUCUCGAGGGGGGGAAAACCCCUUUACCCUCAACUUCAACAGCUCGCAGUCAAG,0.109
24,GGUCACGUCUCAAUCAACUCAUUUUCAGGAGUUUUCUCCUGCAUACUCAACAGCUCGCAGUCAAG,0.105
25,GGUCACGUCUCAAUCAACUCAUUUCCAGGAGUUUGCUCCUGUAUAUUCAACAGCUCGCAGUCAAG,0.0947

row,Sequence,binding signal (log2 fold change)
1,GGUCACGUCUCAAUCAACUCUUUUCCAGGAGUUUCCUCCUGCUAUUUCAACAGCUCGCAGUCAAG,-0.202
2,GGUCACGUCUCAAUCAACUCAACUUCCAGGGAAAACCCUGGUAAUCUCAACAGCUCGCAGUCAAG,-0.0477
3,GGUCACGUCUCAAUCAACUCUAACGAGGGGGGGAAAACCCCUUUACCCUCAACUUCAACAGCUCGCAGUCAAG,0.426
4,GGUCACGUCUCAAUCAACUCAUCCCCCAGGGAAACCCCUGGCUUUUUCAACAGCUCGCAGUCAAG,-0.00181
5,GGUCACGUCUCAAUCAACUCUUCCUCCAGGGAAAGCCCUGGCAAACUCAACAGCUCGCAGUCAAG,-0.165
6,GGUCACGUCUCAAUCAACUCUAUUCCAGGAGUUUCCUCCUGCUAACUCAACAGCUCGCAGUCAAG,0.0967
7,GGUCACGUCUCAAUCAACUCUAUCUCAGGAGUUUCCUCCUGCAAUUUCAACAGCUCGCAGUCAAG,0.0969
8,GGUCACGUCUCAAUCAACUCCCACGAGGGGGGGAAAACCCCUUUACCCUCUACUUCAACAGCUCGCAGUCAAG,-0.417
9,GGUCACGUCUCAAUCAACUCAUUUGCAGGAGUUUACUCCUGGUAUCUCAACAGCUCGCAGUCAAG,0.00726
10,GGUCACGUCUCAAUCAACUCAACUCCCAGGGAAACCCCUGGUUAUUUCAACAGCUCGCAGUCAAG,0.0645
11,GGUCACGUCUCAAUCAACUCCCUAGAGGGGGGGAAAACCCCUUUGCCCUCACAAUCAACAGCUCGCAGUCAAG,0.17
12,GGUCACGUCUCAAUCAACUCCAUAGAGGGGGGGAAAACCCCUUUACCCUCAUUAUCAACAGCUCGCAGUCAAG,-0.378
13,GGUCACGUCUCAAUCAACUCCUCAGAGGGGGGGAAAACCCCUUUGCCCUCCACAUCAACAGCUCGCAGUCAAG,-0.139
14,GGUCACGUCUCAAUCAACUCUUCAGAGGGGGGGAAAACCCCUUUGCCCUCAACAUCAACAGCUCGCAGUCAAG,0.0495
15,GGUCACGUCUCAAUCAACUCAUCUUCCAGGGAAAUCCCUGGCUAUCUCAACAGCUCGCAGUCAAG,0.276
16,GGUCACGUCUCAAUCAACUCAUCCCCCAGGGAAACCCCUGGUUUUUUCAACAGCUCGCAGUCAAG,-0.246
17,GGUCACGUCUCAAUCAACUCUUCCCCCAGGGAAAACCCUGGUUUUUUCAACAGCUCGCAGUCAAG,0.00103
18,GGUCACGUCUCAAUCAACUCUAUCUCAGGAGUUUUCUCCUGCAAUUUCAACAGCUCGCAGUCAAG,-0.167
19,GGUCACGUCUCAAUCAACUCAUCUUCAGGAGUUUUCUCCUGCUAUCUCAACAGCUCGCAGUCAAG,0.0726
20,GGUCACGUCUCAAUCAACUCUUCCCCCAGGGAAAUCCCUGGUAUUCUCAACAGCUCGCAGUCAAG,0.0471
21,GGUCACGUCUCAAUCAACUCCUUAGAGGGGGGGAAAACCCCUUUACCCUCCAUGUCAACAGCUCGCAGUCAAG,0.16
22,GGUCACGUCUCAAUCAACUCUAUUCCCAGGGAAAGCCCUGGUUAUUUCAACAGCUCGCAGUCAAG,-0.0302
23,GGUCACGUCUCAAUCAACUCCUACGAGGGGGGGAAAACCCCUUUACCCUCAAUUUCAACAGCUCGCAGUCAAG,0.14
24,GGUCACGUCUCAAUCAACUCAAUUCCAGGAGUUUUCUCCUGUAAACUCAACAGCUCGCAGUCAAG,0.105
25,GGUCACGUCUCAAUCAACUCUUUUUCCAGGGAAAGCCCUGGCAUACUCAACAGCUCGCAGUCAAG,0.136

row,Sequence,binding signal (log2 fold change)
1,GGUCACGUCUCAAUCAACUCUUUUUCCAGGGAAAGCCCUGGUAUACUCAACAGCUCGCAGUCAAG,-0.0546
2,GGUCACGUCUCAAUCAACUCCCACGAGGGGGGGAAAACCCCUUUACCCUCAUAUUCAACAGCUCGCAGUCAAG,-0.399
3,GGUCACGUCUCAAUCAACUCAAUCCCCAGGGAAAUCCCUGGCAAUCUCAACAGCUCGCAGUCAAG,0.171
4,GGUCACGUCUCAAUCAACUCCUAUGAGGGGGGGAAAACCCCUUUACCCUCCAUUUCAACAGCUCGCAGUCAAG,-0.098
5,GGUCACGUCUCAAUCAACUCCCUCGAGGGGGGGAAAACCCCUUUACCCUCUAUUUCAACAGCUCGCAGUCAAG,0.254
6,GGUCACGUCUCAAUCAACUCAAUCUCCAGGGAAAACCCUGGUUAUCUCAACAGCUCGCAGUCAAG,0.128
7,GGUCACGUCUCAAUCAACUCAAUCGCAGGAGUUUACUCCUGGUUUCUCAACAGCUCGCAGUCAAG,-0.0207
8,GGUCACGUCUCAAUCAACUCAUCCCCCAGGGAAAUCCCUGGCAAAUUCAACAGCUCGCAGUCAAG,0.0484
9,GGUCACGUCUCAAUCAACUCUUCUUCCAGGGAAAUCCCUGGCUUUUUCAACAGCUCGCAGUCAAG,-0.0109
10,GGUCACGUCUCAAUCAACUCAAGUCCAGGAGUUUACUCCUGUUUUUUCAACAGCUCGCAGUCAAG,-0.112
11,GGUCACGUCUCAAUCAACUCAAACGAGGGGGGGAAAACCCCUUUGCCCUCACAAUCAACAGCUCGCAGUCAAG,0.049
12,GGUCACGUCUCAAUCAACUCUAUCUCCAGGGAAACCCCUGGCAAUCUCAACAGCUCGCAGUCAAG,-0.0672
13,GGUCACGUCUCAAUCAACUCUACUUCCAGGGAAAACCCUGGCAAUCUCAACAGCUCGCAGUCAAG,0.0337
14,GGUCACGUCUCAAUCAACUCUUCGUCAGGAGUUUACUCCUGUAUAUUCAACAGCUCGCAGUCAAG,0.17
15,GGUCACGUCUCAAUCAACUCUACAGAGGGGGGGAAAACCCCUUUACCCUCACAUUCAACAGCUCGCAGUCAAG,0.08
16,GGUCACGUCUCAAUCAACUCAUUCGAGGGGGGGAAAACCCCUUUACCCUCCACAUCAACAGCUCGCAGUCAAG,0.0184
17,GGUCACGUCUCAAUCAACUCCAUCGAGGGGGGGAAAACCCCUUUACCCUCAUUCUCAACAGCUCGCAGUCAAG,0.101
18,GGUCACGUCUCAAUCAACUCAACUCCAGGAGUUUCCUCCUGCAAUGUCAACAGCUCGCAGUCAAG,0.0348
19,GGUCACGUCUCAAUCAACUCCUCUGAGGGGGGGAAAACCCCUUUACCCUCUUCUUCAACAGCUCGCAGUCAAG,-0.164
20,GGUCACGUCUCAAUCAACUCCCAUGAGGGGGGGAAAACCCCUUUACCCUCCACAUCAACAGCUCGCAGUCAAG,-0.274
21,GGUCACGUCUCAAUCAACUCCAAAGAGGGGGGGAAAACCCCUUUACCCUCAACCUCAACAGCUCGCAGUCAAG,0.316
22,GGUCACGUCUCAAUCAACUCUUCCUCCAGGGAAAUCCCUGGCAAUCUCAACAGCUCGCAGUCAAG,0.012
23,GGUCACGUCUCAAUCAACUCUUCGCCCAGGGAAAACCCUGGUAAAUUCAACAGCUCGCAGUCAAG,-0.0848
